Assay results from the supplement of paper PMC10126150.
Sequences with one replicate were seen in a single cluster, so their values are uncertain.

Tested on: ATP
Experiment: switch fluorescence ratio, 500 uM ATP over buffer (Cy3 cluster intensity, sum of 5 cycles each) (fold (ratio)); higher = stronger signal-on switching upon ATP binding; sequences stand for … in TCGTCGGCAGCGTCAGATGTGTATAAGAGACAGTTTTTTTTTTTTTTTTTTTTTTTTT…TC
Settings: aptamer strand: ATP DNA aptamer (quencher-CACCTGGGGGAGTATTGCGGAGGAAGG + anchor), 100 nM annealed; ATP concentration: 500 uM; one replicate
Procedure, shortened: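 Per cluster, summed Cy3 intensity from the target cycles was divided by that from the buffer cycles to give the fluorescence ratio, then averaged per switch-domain sequence. Clusters outside 100-1000 RFU were excluded. The Cy3-labelled switching-strand clusters, on a modified Illumina MiSeq flow-cell, were annealed to 100 nM quencher-labelled ATP aptamer and imaged in selection buffer, then after 15 min with 500 uM ATP at 22 °C, for five cycles with NaOH stripping and re-annealing between them.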
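Further: ATP exposure 15 min at 22 °C before imaging.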

Sequence	switch fluorescence ratio
TTCCGTGGCT	1.03
TTCTCTAGGA	1.02
GGCGTTCCAG	0.984
AGCTCAGACC	1.05
ACATTCGGAG	0.951
TCTGGATGGA	0.997
GGTAGATATT	0.949
TGCGAGGCAG	1.15
TCGTTTTTGT	0.958
GGGTCTGCTT	0.978
ACTGCCGGGG	1.09
TGTTATTACA	0.956
GGTATTGCCC	0.947
AGGGGCCCTC	1.02
ATTATTTTTA	1.06
CACAATTATT	1.02
AAATGGCCTA	0.972
ACTCGTGCGT	0.966
CTTCTCTGC	1.23
TTGTTGTC	1.05
TGGGATCTAC	1.02
TTTTTGGGG	1.02
TAGTATTTCA	0.997

Sequence	switch fluorescence ratio
CAGCTAGCTC	1.01
AAAAGATATG	1.01
AGTTCGCCGT	1.07
TAGCAGTCTG	1.02
TTAGAACGTA	1.05
GCGCAGGCAG	1.02
GTTAGGTGTT	1.09
AGAATTGAGC	1.01
TCGGTCTTCA	0.991
TAGGCGACGG	1
TGTCGTAGTT	0.971
ACAGTGCGCA	0.998
TATCAATACA	1.18
CGGACAGTCA	1.07
GACTTCGATA	1.11
TACACGGATG	1
TTGCTCCCTA	1.23
GCTTTTAATT	0.942
TATATGTCCC	1
CGACTGGTTT	1.04
AGTTTGTATG	1.01
TCACCGGGCT	0.976
TGAGGGAAGG	0.984

Sequence	switch fluorescence ratio
CTGACGTTTC	2
GCACCTCCGG	1.02
GTTCTACACC	1.06
AATTTCCACT	0.996
ATTGTCGGCC	0.982
GCTGTACAAT	1.02
TTCTAGATGA	0.955
TGGGATATGT	0.988
CGCGAACCCA	1.03
TGATTTCGTA	0.98
CGCCTTATGG	1.03
TAATAGCGAA	1.01
AAACGTTCGA	1.08
ATTGTCGGTG	1.06
GGGGTGACCC	0.992
GCATGGTAAT	1.01
AACTTTGTGG	0.972
GATATTATAG	0.989
TAGAGGTGAC	1.04
TTATTAACCA	1.05
ATACTAAATG	1.04
TTCATGAGCG	1.04
AGCGTCTCTA	1.03

Sequence	switch fluorescence ratio
TTGGTGCGAA	0.968
GAAGGGGGTC	1.02
TGGTAGGTGC	1.1
GGGGAACTTG	0.98
CGTTCCTACC	1.24
GATCAACCAT	0.983
CACGGTCCTA	0.978
GATCAATTCG	0.984
CCGGGCGCGT	1.85
GCATAGATGC	0.989
GGCCTGAGAA	0.991
CCATTTGGGT	0.986
AGGAAGCTCG	0.98
TAGAATTTA	0.967
CCCCATAGAC	2.06
GGCGGTCGGG	1
TGAAGCTCCG	0.993
TTCGTTAGTG	0.999
CCGGAGGAGT	1.19
TCCTAGAATT	1.02
GCCGCACTAG	6.12
CTCGCCCTGG	4.15
AACGGAAAAT	1.1

Sequence	switch fluorescence ratio
TACTTACACC	1.39
AGGTGGTAG	0.974
CGGTCAGGTG	3.02
AGATAATGTA	0.986
GGGTACGCGT	0.934
TGTAAAACGC	1.03
CGTAGCCGGT	1.05
CGCTTTTTGT	0.92
GAGACCGCAT	4.45
GAGGGCGTAC	1.05
AAGTAATTTG	1.04
CTGGGTGGGT	1.02
GTTGAATAG	1.02
ACTGCGGAAT	2.43
AATGGTGGGA	0.97
TTGTTGGCGT	0.996
TCGCACGGAA	1.29
ACGCCCACCA	1.46
AACCAGAGGG	0.998
TCAGACTCAA	1.57
GATGGACGAA	0.965
GCGACTG	0.996
GATCAGTAGA	1.17

Sequence	switch fluorescence ratio
AGCGGCTGCC	0.983
GCGGGTACCA	1
TCTTGACGGT	0.99
GTCGTTTTTA	0.992
ATACACGGTT	1.04
TCGGAGCGC	0.91
CGTCGTGATC	1.07
TCATACGAGG	1.02
AGGAGCTTAT	1
TCCTTTCCCT	1.05
TGCCAGCAAG	1.06
AACACACAT	1.25
CCCTTTTAGT	1.02
TTGATCCGC	1.63
GGATTCCAGC	0.975
GATATCACGC	1.05
AGAGTACTCC	1.07
CGCCAGGAGC	1.05
ACAGAGGAAC	0.99
TATCTGGTTG	0.937
GGCGTAGGTC	1.03
GGTGCGTCTT	0.914
TCACGGGAGG	1.02

Sequence	switch fluorescence ratio
CCTAATCAGA	0.953
TAGCGAGGTA	0.984
ACACGACATG	1.04
AGCCTCTTG	0.974
TACTAACCAA	1.08
GTCTAGTCTG	0.973
AAGATGACTT	1.01
CATAACGGAG	1.04
GAAGGGCTAT	0.978
AACATAAGAG	1
GAGGGTCTAA	1.02
CTATGGCCTT	0.987
ACTAAGGCCG	1.14
AAGCTCTCGA	0.954
AAAAAGCTAT	0.959
AAACTGCGAC	1.18
TATCGCATCT	1.04
GGGGGATCCA	0.953
TCCTGAAGCT	1.05
